In PubChem BioAssay AID652106 (National Center for Advancing Translational Sciences (NCATS), 2013):
The campaign covered roughly 370,000 compounds. About 500 (0.14%) were called active. Inconclusive means that the source gave no clear call. Such entries were picked first, then a sample of the others. Calls follow the shape of the dose curve; as a rule, active = well fitted activation curve with a large enough effect; inconclusive = small, poorly fitted or top-dose-only effect; inactive = no such curve, though single readings can be large or run the other way. No potency is given beside an inconclusive call; the fits are too rough.

assay: qHTS of alpha-syn Inhibitors; settings: Yeast expressing alpha-synuclein, BacTiter-Glo, 24 h; Potency: growth rescue unless noted; growth rescue (activation): at 46.1 µM (top of the series) unless noted; also: nearly all actives have a fitted effect of over 65% in size; as to growth rescue (activation): % of control where 0% means no effect
Method in brief: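 Readout is rescue of growth in alpha-synuclein-expressing yeast, so inhibitors of toxicity appear as activators. Growth after 24 hr at 30 deg C in galactose medium is quantified by luminescence.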
Potency is read from the fitted curve at half-maximal effect; tags tell the direction and shape of the fitted curve.

| Structure (SMILES) | Potency | growth rescue (activation) |
| --- | --- | --- |
| Cc1ccc(Cc2c(-c3ccc(Cl)cc3)nc3cc(C)ccn23)cc1 | inconclusive [activator, partial curve, poor fit] | – |
| COc1cc2nc(NC3CCN(C)CC3)nc(NC3CCN(C)CC3)c2cc1OC | – | inactive: 0.456% |
| O=C(CCC1CCCCC1)NNC(=O)NC12CC3CC(CC(C3)C1)C2 | – | inactive: 1.82% |
| Cc1ccc(SCC(=O)NC2CC3CCC(C2)N3C)cc1 (centres undefined) | inconclusive [activator, single point] | – |
| Nc1ccc(/C=C/c2nc3ccccc3s2)cc1 | active: 12.6 µM | – |
| O=C(CCSc1nnc(-c2ccncc2)o1)Nc1ccc(Cl)cc1 | inconclusive [activator, partial curve, poor fit] | – |
| CCCCC[C@H]1CN(Cc2ccc(OC)cc2)C(=O)[C@@H]1CC(=O)NCc1ccccc1 | inconclusive [activator, single point] | – |
| CCn1c(COc2ccc(Cl)cc2)nnc1SC1CCc2ccccc2C1=O (centres undefined) | inconclusive [activator, single point] | – |
| CC1CCN(c2ncnc3c2cnn3-c2ccccc2)CC1 | – | inactive: 6.94% |
| Clc1ccccc1OCCCCN1CCNCC1 | – | inactive: 0.0794% |
| CC(C)COc1cccc(C(=O)NNC(=O)C2COc3ccccc3O2)c1 (centres undefined) | inconclusive [activator, partial curve] | – |
| COc1cc(NS(=O)(=O)c2ccc(NC(=O)COc3ccccc3Cl)cc2)nc(OC)n1 | – | inactive: 14% |
| CC(=O)c1cccc(NC(=O)c2nc(-c3ccc(C)cc3)n3c2CCCCC3)c1 | – | inactive: 1.54% |
| O=C(NC(=S)N1CCN(c2nc(-c3ccccc3)cs2)CC1)c1cncc(Br)c1 | inconclusive [activator, single point] | – |
| C[C@@H](CSc1ccc(Br)cc1)CN1CC[C@H](NC(=O)OCc2ccccc2)CCC1=O | inconclusive [activator, single point] | – |
| Cc1ccc(C)c(S(=O)(=O)N(C(=O)c2ccncc2)c2ccc(OC(=O)c3ccncc3)cc2)c1 | inconclusive [activator, partial curve] | – |
| CCCCN(C)C(=O)c1sc(=O)n(Cc2ccc(Cl)c(Cl)c2)c1C | inconclusive [activator, single point] | – |
| O=C(COC(=O)/C=C/c1ccc([N+](=O)[O-])cc1)Nc1ccc(F)cc1 | inconclusive [activator, single point] | – |
| O=c1cc(CSc2ccccn2)c2ccccc2[nH]1 | inconclusive [activator, single point] | – |
| O=C(NC(c1ccc(Cl)cc1)c1ccsc1)C1CCN(Cc2cccc(Cl)c2)CC1 (centres undefined) | inconclusive [activator, single point] | – |
| Brc1cccc[n+]1C/C=C/C[n+]1ccccc1Br | inconclusive [activator, single point] | – |
| Cc1nnc2sc(-c3csc4c3CCCC4)nn12 | – | inactive: -3.16% |
| CC12CCC(c3c(C(=O)Nc4nccs4)nn(-c4ccccc4)c31)C2(C)C (centres undefined) | inconclusive [activator, single point] | – |
| Cc1ccc(NC(=O)Nc2ncccc2C)cc1 | – | inactive: -8.85% |
| O=C(Nc1ccccc1)OCN1C(=O)c2ccccc2C1=O | inconclusive [activator, single point] | – |

| Structure (SMILES) | Potency | growth rescue (activation) |
| --- | --- | --- |
| Cc1cc(Br)ccc1OCC(=O)NNC(=O)c1cnccn1 | inconclusive [activator, single point] | – |
| CCOC(=O)c1c(NC(=O)Cc2ccccc2)sc2c1CCN(CC)C2 | inconclusive [activator, single point] | – |
| Nc1c(N)c2ccccc2oc1=O | – | inactive: 0.903% |
| COc1ccc2c(c1)C(c1cccs1)=NNC(c1ccncc1)=N2 | – | inactive: -0.687% |
| O=C1C2C3C=CC(C3=C(c3ccccc3)c3ccccc3)C2C(=O)N1CCO (centres undefined) | – | inactive: 15.3% |
| Cc1cc(C)c(S(=O)(=O)NC2CC3CCC2C3)c(C)c1 (centres undefined) | – | inactive: -13% |
| O=C(CCN1C(=O)c2ccccc2C1=O)N(CCO)Cc1ccccc1 | inconclusive [activator, single point] | – |
| COc1ccc2nc(N=NC3=C(O)CC(C)(C)CC3=O)sc2c1 | inconclusive [activator, single point] | – |
| Cn1c(C(=O)NCCN2CCOCC2)cc2c(=O)n(C)c3ccccc3c21 | inconclusive [activator, single point] | – |
| Oc1ccccc1/C=N/NC(=S)NC1CC2CCC1C2 (centres undefined) | inconclusive [activator, single point] | – |
| CCOc1ccc(-n2c(SCc3ccc([N+](=O)[O-])cc3)nnc2-c2ccccc2)cc1 | inconclusive [activator, single point] | – |
| Cc1cc(C(=O)COc2ccc(Br)cc2F)c(C)n1C1CC1 | inconclusive [activator, partial curve] | – |
| CC(C)Cc1ccc(CN2CCCC(NC(=O)c3cccc(-n4cnnc4)c3)C2)cc1 (centres undefined) | – | inactive: -2.39% |
| CC(C)C(=O)Nc1cccc(C(=O)Nc2ccccc2C(=O)O)c1 | – | inactive: 1.24% |
| CCCc1nc(SCC(=O)N2CCC(C)CC2)c2c(=O)n(C)c(=O)n(C)c2n1 | inconclusive [activator, single point] | – |
| O=[N+]([O-])c1cccc(/C=N/Nc2nc(NCc3ccccc3)nc(N3CCOCC3)n2)c1O | – | inconclusive: -31% [activator] |
| COC(=O)c1ccc(CSc2nnc3n(Cc4ccccc4OC)c(=O)c4ccccc4n23)o1 | inconclusive [activator, single point] | – |
| C[C@@]12C(=O)N(CC3CCCO3)CC(=O)N1[C@H]1c3cc(Cl)ccc3OC[C@@H]1[C@@H]2c1ccccc1 (some centres undefined) | – | inactive: 1.03% |
| O=c1onc(-c2ccccc2)n1Cc1ccc([N+](=O)[O-])cc1 | – | inactive: 0.0273% |
| COc1cc2cc(CCCOC(=O)c3cccc(Br)c3)oc(=O)c2cc1OC | inconclusive [activator, single point] | – |
| COc1ccc(C(=O)NCCc2nnc(SCC(=O)Nc3ccccc3F)n2C)cc1 | – | inactive: -5.17% |
| CC(C)c1ccc(NC(=O)CSc2nnc(-c3ccccc3)n2C)cc1 | – | inactive: -4.52% |
| COc1cc(NC(=O)C2CC(c3cccc(Br)c3)=NO2)cc(OC)c1OC (centres undefined) | – | inactive: 0.303% |
| CC(C)c1ccc(NC(=O)C2CCCN(S(=O)(=O)c3cccnc3)C2)cc1 (centres undefined) | inconclusive [activator, single point] | – |
| COCc1ccc(-c2c(-c3ccccc3OC)sc3cc4c(cc23)OCO4)cc1 | inconclusive [activator, partial curve] | – |

| Structure (SMILES) | Potency | growth rescue (activation) |
| --- | --- | --- |
| Cc1ccc(CNC(=O)C2(C)CCN2C(=O)Cc2ccc(-c3ccccc3)cc2)cc1 (centres undefined) | inconclusive [activator, single point] | – |
| CCCc1cc(C(=O)Nc2ccc(C(=O)c3ccc(F)cc3)cc2)n(C)n1 | – | inactive: -22.8% |
| COc1cccc(CSc2nnc(CSc3nc4nc(C)cc(C)n4n3)s2)c1 | – | inactive: 2.42% |
| CCCC(NC(=O)CCc1c(C)c2cc3c4c(oc3c(C)c2oc1=O)CCCC4)C(=O)O (centres undefined) | – | inactive: 14.2% |
| Cc1ccc2c(c1)N(CC(=O)N1CCCc3ccccc31)C(=O)CO2 | – | inactive: 17.6% |
| OCCCNc1ncnc2c1ncn2[C@H]1CN(Cc2ccc(-c3ccccc3)cc2)C[C@@H](CO)O1 | – | inactive: 3.01% |
| COc1ccc(NC(=O)CN(C)C(=O)c2cc3c(s2)CCCCC3)cc1 | – | inactive: 0.131% |
| CC1(Cc2cc(Cl)ccc2C(F)(F)F)C(=O)Nc2c(Cl)cccc21 (centres undefined) | – | inactive: 0.398% |
| COC(=O)C(CC(C)C)Oc1ccc2c(C)cc(=O)oc2c1 (centres undefined) | – | inactive: -0.945% |
| c1ccc(-c2oc3ncnc(NCCCn4ccnc4)c3c2-c2ccccc2)cc1 | inconclusive [activator, single point] | – |
| COc1cc(OC)c(C2=NOC(C(=O)NCc3cccs3)C2)cc1Cl (centres undefined) | inconclusive [activator, single point] | – |
| O=C(CSc1nnc(C2CC2)n1C1CC1)c1ccc(F)c(F)c1 | inconclusive [activator, single point] | – |
| CC(C)OC(=O)c1cc2c(ccn2C)n1CC(=O)N(Cc1ccccc1)c1ccccc1 | – | inactive: -0.726% |
| O=C(N/N=C/c1cc(Cl)ccc1O)C(=O)Nc1ccccc1OC(F)(F)C(F)F | inconclusive [activator, partial curve] | – |
| Cc1ccc(CN=c2c([N+](=O)[O-])nn(-c3cccc(C)c3)n2O)cc1 | – | inactive: 3.12% |
| CCOC(=O)C1CCN(S(=O)(=O)c2ccc(C)c(C(=O)NC3CCCCC3)c2)CC1 | – | inactive: 4.69% |
| COc1cccc(COC(=O)Nc2ccccc2)c1OC | inconclusive [activator, single point] | – |
| CCOC(=O)COc1ccc(S(=O)(=O)c2ccc(OCC(=O)OCC)cc2)cc1 | inconclusive [activator, single point] | – |
| O=[N+]([O-])c1cc([N+](=O)[O-])c2oc(-c3ccccc3)c(Br)c2c1O | – | inactive: -79.9% |
| COc1ccc(Cn2cc(CN3CC(N4CCN(Cc5ccccc5F)CC4)CS3(=O)=O)nn2)cc1 (centres undefined) | inconclusive [activator, single point] | – |
| CCSc1nnc(NC(=O)c2ccc3c(c2)OCO3)s1 | inconclusive [activator, single point] | – |
| CCOCCCn1c(=S)[nH]c2cc(C(=O)NCc3ccc(F)cc3)ccc2c1=O | – | inactive: 0.114% |
| COc1ccc(-c2csc3ncnc(N4CCN(c5ccc(OC)cc5)CC4)c23)cc1 | – | inactive: 10.3% |
| O=C(Nc1ccc(F)c(Cl)c1)C1Cc2c(-c3ccc(Cl)cc3)ccnc2O1 (centres undefined) | inconclusive [activator, single point] | – |
